Here are results for 38 compounds from the supplement of paper PMC9334596.

Each structure is given as a SMILES string. Where “and” joins values, the source holds several entries; their conditions need not be identical. Equal entries are not always repeated. In all, about 5,300 compounds were measured (“PER2::LUC luminescence relative to vehicle control”: median about 0.96, highest 2% from about 1.3 on). Some of the results follow.

In the assay the test system is mPer2Luc MEF. Nature of the assay: PER2::LUC luminescence relative to vehicle control (fold of vehicle); higher = higher PER2::LUC reporter signal. Particulars: 10 µM. The method in brief:
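In 384-well plates, ~3000 mPer2Luc reporter mouse embryonic fibroblasts per well were cultured in DMEM with 10% FBS at 37 °C and 5% CO2 for 48 h before compounds from commercial libraries were added at 10 μM. ONE-Glo luciferase readings were taken 24 h and 30 h after treatment. Each value is PER2::LUC luminescence given as fold of vehicle control.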

Consider `COc1cc(O)c(C(=O)Nc2nc(C(=O)NCCN(C(C)C)C(C)C)cs2)cc1OC`, for which the “PER2::LUC luminescence” value reads like this: (time after treatment 24 h) 0.893; (time after treatment 30 h) 0.853.

As to `CCOc1nc2cccc(C(=O)O)c2n1Cc1ccc(-c2ccccc2-c2noc(=O)[nH]2)cc1`, the “PER2::LUC luminescence” value reads like this: (time after treatment 24 h) 1.04 and 1.06; (time after treatment 30 h) 1.01 and 0.993.

`CC(C)=CCC/C(C)=C/CC/C(C)=C/CC/C(C)=C/CC/C(C)=C/CC/C(C)=C/CC/C(C)=C/CC/C(C)=C/CC/C(C)=C/CO`: the “PER2::LUC luminescence” value came out at 0.994 (time after treatment 24 h) and 0.934 (time after treatment 30 h).

As for `O=S1(=O)OC(c2ccc(O)cc2)(c2ccc(O)cc2)c2ccccc21`, the “PER2::LUC luminescence” value by setting is: (time after treatment 24 h) 0.9; (time after treatment 30 h) 0.927.

As for `COCCOC(=O)C1=C(C)NC(C)=C(C(=O)OC/C=C/c2ccccc2)C1c1cccc([N+](=O)[O-])c1` (stereo unspecified), the “PER2::LUC luminescence” value reads like this: (time after treatment 24 h) 0.837; (time after treatment 30 h) 1.13.

For `CC1(C)C(/C=C/C=C/C=C/C=C2\N(CCCCS(=O)(=O)O)c3ccc4ccccc4c3C2(C)C)=[N+](CCCCS(=O)(=O)[O-])c2ccc3ccccc3c21`, the “PER2::LUC luminescence” value came to 1.04 (time after treatment 24 h) and 0.915 (time after treatment 30 h).

With `CCCCN(CCCC)C(=O)CN1C[C@H](c2ccc3c(c2)OCO3)[C@@H](C(=O)O)[C@@H]1c1ccc(OC)cc1`, the “PER2::LUC luminescence” value is 2.23 (time after treatment 24 h) and 2.08 (time after treatment 30 h).

In the case of `CC(C)c1cc(-c2ccc(F)c3ccccc23)nc(N)n1`, the “PER2::LUC luminescence” value (time after treatment 24 h) came out at 0.882 and the “PER2::LUC luminescence” value (time after treatment 30 h) stood at 0.987.

Regarding `O=C(NOC[C@H](O)CO)c1ccc(F)c(F)c1Nc1ccc(I)cc1F`, the “PER2::LUC luminescence” value was 0.224 (time after treatment 24 h) and 0.161 (time after treatment 30 h).

As for `Cc1occc1C(=O)n1ccnc1`, the “PER2::LUC luminescence” value came out at 0.986 (time after treatment 24 h) and 0.971 (time after treatment 30 h).

With `Cc1cc(C)c(/C=C2\C(=O)Nc3ccccc32)[nH]1`, the “PER2::LUC luminescence” value was 1 and 0.897 and 0.813 (time after treatment 24 h); 0.969 and 0.927 and 0.792 (time after treatment 30 h).

Regarding `CC(C)/C(O)=C1/C(=O)O[C@@H](c2ccoc2)[C@]2(C)C(O)[C@@H](O)[C@@]34OC5(C)OC67CC(C)(C(O)[C@]6(O)[C@@H](O)[C@]3(O5)C12)[C@H](CC(=O)O)[C@]74C` (stereo partly specified), the “PER2::LUC luminescence” value was 0.962 (time after treatment 24 h) and 0.928 (time after treatment 30 h).

For `CC[C@H]1OC(=O)[C@H](C)[C@@H](O[C@H]2C[C@@](C)(OC)[C@@H](O)[C@H](C)O2)[C@H](C)[C@@H](O[C@@H]2O[C@H](C)C[C@H](N(C)C)[C@H]2O)[C@](C)(O)C[C@@H](C)[C@@H]2N[C@@H](COCCOC)O[C@H]([C@H]2C)[C@]1(C)O`, the “PER2::LUC luminescence” value worked out at 0.935 (time after treatment 24 h) and 0.829 (time after treatment 30 h).

Consider `O=C1CC2(CCCC2)CC(=O)N1CCCCN1CCN(c2ncccn2)CC1`, for which the “PER2::LUC luminescence” value stood at 0.949 (time after treatment 24 h) and 0.87 (time after treatment 30 h).

Turning to `O=C1Nc2nc(-c3c(O)cccc3OCC3CC3)cc([C@@H]3CCCNC3)c2CO1`, the “PER2::LUC luminescence” value (time after treatment 24 h) is 0.574 and the “PER2::LUC luminescence” value (time after treatment 30 h) amounted to 0.66.

For `CC1(C)CC[C@]2(C(=O)O)CC[C@]3(C)C(=CC[C@@H]4[C@@]5(C)CC[C@H](O)[C@@](C)(CO)[C@@H]5CC[C@]43C)[C@@H]2C1`, the “PER2::LUC luminescence” value reads like this: (time after treatment 24 h) 0.969; (time after treatment 30 h) 0.905.

With `CNC(C)C1CCC(N)C(OC2C(N)CC(N)C(OC3OCC(C)(O)C(NC)C3O)C2O)O1` (stereo unspecified), the “PER2::LUC luminescence” value was 1.04 (time after treatment 24 h) and 1.08 (time after treatment 30 h).

Take `Cc1c(F)cc(C(=O)NC2CC2)cc1-c1ccc(C(=O)NCC(C)(C)C)cn1`: the “PER2::LUC luminescence” value (time after treatment 24 h) stood at 0.786 and the “PER2::LUC luminescence” value (time after treatment 30 h) came to 0.934.

Consider `N#Cc1cc(-c2n[nH]c(-c3ccncc3)n2)ccn1`, for which the “PER2::LUC luminescence” value is 1.13 (time after treatment 24 h) and 1.01 (time after treatment 30 h).

Consider `CCn1ccnc1CC1COc2ccccc2O1` (stereo unspecified), for which the “PER2::LUC luminescence” value runs as follows: (time after treatment 24 h) 0.818; (time after treatment 30 h) 0.86.

On to `O=C(/C=C/c1ccc(CN(CCO)CCc2c[nH]c3ccccc23)cc1)NO`, for which the “PER2::LUC luminescence” value is, setting by setting: (time after treatment 24 h) 0.472 and 0.431; (time after treatment 30 h) 0.317 and 0.283.

With `CCOC(=O)C12CC1/C(=N/O)c1ccccc1O2` (stereo unspecified), the “PER2::LUC luminescence” value runs as follows: (time after treatment 24 h) 1.09; (time after treatment 30 h) 1.02.

On to `Cc1nc(-c2cn3c(n2)-c2ccc(-c4cnn(C(C)(C)C(N)=O)c4)cc2OCC3)n(C(C)C)n1`, for which the “PER2::LUC luminescence” value worked out at 0.464 (time after treatment 24 h) and 0.356 (time after treatment 30 h).

As for `CC(C)(C)c1ccc(-c2nc3ccccc3[nH]2)cc1`, the “PER2::LUC luminescence” value was 0.03 (time after treatment 24 h) and 0.034 (time after treatment 30 h).

For `C=CCN1CCc2c(cc(O)c(O)c2Br)[C@@H](c2ccccc2)C1`, the “PER2::LUC luminescence” value was determined as 0.467 (time after treatment 24 h) and 0.633 (time after treatment 30 h).

Turning to `C[C@@H]1C[C@H]2[C@@H]3C[C@H](F)C4=CC(=O)C(Cl)=C[C@]4(C)[C@@]3(F)[C@@H](O)C[C@]2(C)[C@@]1(O)C(=O)CO`, the “PER2::LUC luminescence” value by setting is: (time after treatment 24 h) 0.765; (time after treatment 30 h) 0.857.

For `COC(=O)N(C)c1c(N)nc(-c2nn(Cc3ccccc3F)c3ncccc23)nc1N`, the “PER2::LUC luminescence” value (time after treatment 24 h) amounted to 1.06 and the “PER2::LUC luminescence” value (time after treatment 30 h) came to 0.859.

For `Nc1nc(NCCc2ccc(O)cc2)nc2nc(-c3ccco3)nn12`, the “PER2::LUC luminescence” value runs as follows: (time after treatment 24 h) 1.01; (time after treatment 30 h) 1.03.

With `CC1=C(CO)C(=O)O[C@@H]([C@@H](C)[C@H]2CC[C@H]3[C@@H]4C[C@H]5O[C@]56[C@@H](O)C=CC(=O)[C@]6(C)[C@H]4CC[C@]23C)C1`, the “PER2::LUC luminescence” value is 0.634 (time after treatment 24 h) and 0.708 (time after treatment 30 h).

In the case of `C[C@H](O)C(=O)Nc1c(I)c(C(=O)NC(CO)CO)c(I)c(C(=O)NC(CO)CO)c1I`, the “PER2::LUC luminescence” value (time after treatment 24 h) amounted to 0.785 and the “PER2::LUC luminescence” value (time after treatment 30 h) worked out at 1.12.

For the compound `N[C@H](C(=O)O)c1cc(O)cc(O)c1`, the “PER2::LUC luminescence” value runs as follows: (time after treatment 24 h) 0.941; (time after treatment 30 h) 0.928.

Turning to `CC(=O)OC1CC2CCC1(C)C2(C)C` (stereo unspecified), the “PER2::LUC luminescence” value is, setting by setting: (time after treatment 24 h) 1.18; (time after treatment 30 h) 1.

Regarding `c1ccc(C(NCc2cccnc2)(c2ccccc2)c2ccccc2)cc1`, the “PER2::LUC luminescence” value reads like this: (time after treatment 24 h) 1.07; (time after treatment 30 h) 1.14.

On to `Cc1cccc(C#Cc2ccccc2)n1`, for which the “PER2::LUC luminescence” value was 1.56 and 1.59 and 1.5 (time after treatment 24 h); 1.16 and 1.75 and 1.47 (time after treatment 30 h).

As to `O=C(Nc1ncc([N+](=O)[O-])s1)c1ccc([N+](=O)[O-])c(Cl)c1`, the “PER2::LUC luminescence” value (time after treatment 24 h) stood at 0.928 and the “PER2::LUC luminescence” value (time after treatment 30 h) worked out at 1.22.

As for `O=c1cc[nH]c(=S)[nH]1`, the “PER2::LUC luminescence” value runs as follows: (time after treatment 24 h) 1.04; (time after treatment 30 h) 1.03 and 0.907.

Take `C=CC(=O)Nc1ccc2ncnc(Nc3cccc(Br)c3)c2c1`: the “PER2::LUC luminescence” value is, setting by setting: (time after treatment 24 h) 0.541; (time after treatment 30 h) 0.431.

`CCC(=O)c1c(O)cc(O)cc1O`: the “PER2::LUC luminescence” value runs as follows: (time after treatment 24 h) 0.893; (time after treatment 30 h) 1.02.
